PMC5892938
Some of the results follow. At the low end of the ranking the order means little.

These sequences were tested against GST-SBP-SLBP (stem-loop binding protein) (UniProt Q14493) (assay: targeted RNA Bind-n-Seq). Details: RBNS binding buffer: 25 mM Tris pH 7.5, 150 mM KCl, 3 mM MgCl2, 0.1% Tween, 0.5 mg/mL BSA, 1 mM DTT; 27 nM protein, 750 pM RNA pool; temperature not stated; high values mean tight binding.
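Note: DESeq read counts versus GST-SBP nonspecific binding control pulldown.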

| Sequence | binding signal (log2 fold change) |
| --- | --- |
| GGUCACGUCUCAAUCAACUCCAAAGAGGGGGGGAAAACCCCUUUACCCUCAUUCUCAACAGCUCGCAGUCAAG | -0.346 |
| GGUCACGUCUCAAUCAACUCUUUCCCAGGAGUUUUCUCCUGUAAUUUCAACAGCUCGCAGUCAAG | 0.00681 |
| GGUCACGUCUCAAUCAACUCAGUCUCAGGAGUUUUCUCCUGUUUAUUCAACAGCUCGCAGUCAAG | -0.298 |
| GGUCACGUCUCAAUCAACUCAACUUCAGGAGUUUCCUCCUGCUUUUUCAACAGCUCGCAGUCAAG | -0.144 |
| GGUCACGUCUCAAUCAACUCAACAGAGGGGGGGAAAACCCCUUUACCCUCCAUCUCAACAGCUCGCAGUCAAG | -0.0395 |
| GGUCACGUCUCAAUCAACUCAAUCUCAGGAGUUUUCUCCUGCAUUCUCAACAGCUCGCAGUCAAG | -0.0343 |
| GGUCACGUCUCAAUCAACUCAGUCCCAGGAGUUUACUCCUGUUUUCUCAACAGCUCGCAGUCAAG | 0.0558 |
| GGUCACGUCUCAAUCAACUCAAUCGAGGGGGGGAAAACCCCUUUACCCUCAAAAUCAACAGCUCGCAGUCAAG | -0.158 |
| GGUCACGUCUCAAUCAACUCCAAAGAGGGGGGGAAAACCCCUUUACCCUCGUCCUCAACAGCUCGCAGUCAAG | 0.369 |
| GGUCACGUCUCAAUCAACUCAUCGUCAGGAGUUUCCUCCUGUUAUUUCAACAGCUCGCAGUCAAG | 0.0969 |
| GGUCACGUCUCAAUCAACUCAAUUCCAGGAGUUUACUCCUGCAUAGUCAACAGCUCGCAGUCAAG | 0.138 |
| GGUCACGUCUCAAUCAACUCAUUCUCAGGAGUUUGCUCCUGUUAUCUCAACAGCUCGCAGUCAAG | -0.0468 |
| GGUCACGUCUCAAUCAACUCAAGUCCAGGAGUUUCCUCCUGUUAUCUCAACAGCUCGCAGUCAAG | -0.125 |
| GGUCACGUCUCAAUCAACUCUCAAGAGGGGGGGAAAACCCCUUUGCCCUCACAUUCAACAGCUCGCAGUCAAG | -0.0507 |
| GGUCACGUCUCAAUCAACUCUUUCCCCAGGGAAAACCCUGGCUAACUCAACAGCUCGCAGUCAAG | 0.153 |
| GGUCACGUCUCAAUCAACUCUUUCUCCAGGGAAAGCCCUGGCUUAUUCAACAGCUCGCAGUCAAG | -0.0812 |
| GGUCACGUCUCAAUCAACUCAUUCCCCAGGGAAAUCCCUGGCAAAUUCAACAGCUCGCAGUCAAG | -0.046 |
| GGUCACGUCUCAAUCAACUCCUUCGAGGGGGGGAAAACCCCUUUACCCUCAUCGUCAACAGCUCGCAGUCAAG | -0.238 |
| GGUCACGUCUCAAUCAACUCCAUAGAGGGGGGGAAAACCCCUUUACCCUCAAUCUCAACAGCUCGCAGUCAAG | -0.0738 |
| GGUCACGUCUCAAUCAACUCUUUUCCAGGAGUUUUCUCCUGCAUUUUCAACAGCUCGCAGUCAAG | -0.117 |
| GGUCACGUCUCAAUCAACUCCUACGAGGGGGGGAAAACCCCUUUACCCUCAUUCUCAACAGCUCGCAGUCAAG | -0.452 |
| GGUCACGUCUCAAUCAACUCAGUUUCCAGGGAAAGCCCUGGCAUUUUCAACAGCUCGCAGUCAAG | 0.0887 |
| GGUCACGUCUCAAUCAACUCUAUUCCCAGGGAAAACCCUGGCUAUUUCAACAGCUCGCAGUCAAG | -0.0983 |
| GGUCACGUCUCAAUCAACUCUAUCCCAGGAGUUUACUCCUGUUUUUUCAACAGCUCGCAGUCAAG | -0.00753 |
| GGUCACGUCUCAAUCAACUCUAUGUCAGGAGUUUCCUCCUGUUUUCUCAACAGCUCGCAGUCAAG | -0.15 |

| Sequence | binding signal (log2 fold change) |
| --- | --- |
| GGUCACGUCUCAAUCAACUCAUCUCCAGGAGUUUACUCCUGUUAUUUCAACAGCUCGCAGUCAAG | 0.175 |
| GGUCACGUCUCAAUCAACUCUACGGAGGGGGGGAAAACCCCUUUACCCUCACAUUCAACAGCUCGCAGUCAAG | 0.0891 |
| GGUCACGUCUCAAUCAACUCUUCCUCAGGAGUUUCCUCCUGUUUUUUCAACAGCUCGCAGUCAAG | 0.00246 |
| GGUCACGUCUCAAUCAACUCAUCUCCCAGGGAAAUCCCUGGCUUUUUCAACAGCUCGCAGUCAAG | -0.112 |
| GGUCACGUCUCAAUCAACUCUUCCUCAGGAGUUUCCUCCUGCAUUCUCAACAGCUCGCAGUCAAG | 0.223 |
| GGUCACGUCUCAAUCAACUCUUCUCCCAGGGAAACCCCUGGUUUACUCAACAGCUCGCAGUCAAG | -0.0411 |
| GGUCACGUCUCAAUCAACUCAAUUUCAGGAGUUUUCUCCUGCAUACUCAACAGCUCGCAGUCAAG | 0.116 |
| GGUCACGUCUCAAUCAACUCAGUCUCAGGAGUUUACUCCUGCAUUUUCAACAGCUCGCAGUCAAG | -0.123 |
| GGUCACGUCUCAAUCAACUCUAUCUCCAGGGAAAGCCCUGGCUUUCUCAACAGCUCGCAGUCAAG | 0.0855 |
| GGUCACGUCUCAAUCAACUCUUCGCCCAGGGAAAUCCCUGGUUAAUUCAACAGCUCGCAGUCAAG | 0.188 |
| GGUCACGUCUCAAUCAACUCUUUCUCCAGGGAAACCCCUGGUUUACUCAACAGCUCGCAGUCAAG | -0.101 |
| GGUCACGUCUCAAUCAACUCUUUCUCAGGAGUUUCCUCCUGCUUAUUCAACAGCUCGCAGUCAAG | 0.0275 |
| GGUCACGUCUCAAUCAACUCUUCGUCCAGGGAAACCCCUGGUAAAUUCAACAGCUCGCAGUCAAG | -0.139 |
| GGUCACGUCUCAAUCAACUCAGUUCCCAGGGAAACCCCUGGCUUUUUCAACAGCUCGCAGUCAAG | -0.124 |
| GGUCACGUCUCAAUCAACUCAACUUCAGGAGUUUUCUCCUGCUAAUUCAACAGCUCGCAGUCAAG | -0.0865 |
| GGUCACGUCUCAAUCAACUCAUCCUCAGGAGUUUUCUCCUGCAAAGUCAACAGCUCGCAGUCAAG | 0.202 |
| GGUCACGUCUCAAUCAACUCUAUUUCCAGGGAAAGCCCUGGCAUUCUCAACAGCUCGCAGUCAAG | 0.0552 |
| GGUCACGUCUCAAUCAACUCAAUGUCAGGAGUUUUCUCCUGCUAAUUCAACAGCUCGCAGUCAAG | -0.028 |
| GGUCACGUCUCAAUCAACUCUAUUCCCAGGGAAAACCCUGGCAUUCUCAACAGCUCGCAGUCAAG | 0.114 |
| GGUCACGUCUCAAUCAACUCAAUUCCAGGAGUUUUCUCCUGUUUAUUCAACAGCUCGCAGUCAAG | 0.0185 |
| GGUCACGUCUCAAUCAACUCAGUCCCAGGAGUUUACUCCUGCAUUCUCAACAGCUCGCAGUCAAG | 0.0695 |
| GGUCACGUCUCAAUCAACUCUACUCCCAGGGAAAGCCCUGGCAUAUUCAACAGCUCGCAGUCAAG | -0.352 |
| GGUCACGUCUCAAUCAACUCUUCUUCAGGAGUUUUCUCCUGCAUUCUCAACAGCUCGCAGUCAAG | 0.0997 |
| GGUCACGUCUCAAUCAACUCAUCCCCAGGAGUUUACUCCUGCAAAUUCAACAGCUCGCAGUCAAG | -0.125 |
| GGUCACGUCUCAAUCAACUCAAUCUCAGGAGUUUACUCCUGCAAUCUCAACAGCUCGCAGUCAAG | -0.0352 |

| Sequence | binding signal (log2 fold change) |
| --- | --- |
| GGUCACGUCUCAAUCAACUCGUCUUCAGGAGUUUCCUCCUGCAAAUUCAACAGCUCGCAGUCAAG | 0.0753 |
| GGUCACGUCUCAAUCAACUCUUCGCCCAGGGAAAGCCCUGGUAUAUUCAACAGCUCGCAGUCAAG | -0.00895 |
| GGUCACGUCUCAAUCAACUCAAUCUCAGGAGUUUACUCCUGCAUAUUCAACAGCUCGCAGUCAAG | 0.0726 |
| GGUCACGUCUCAAUCAACUCAAAAGAGGGGGGGAAAACCCCUUUACCCUCAAACUCAACAGCUCGCAGUCAAG | -0.329 |
| GGUCACGUCUCAAUCAACUCCCUAGAGGGGGGGAAAACCCCUUUACCCUCAAACUCAACAGCUCGCAGUCAAG | -0.06 |
| GGUCACGUCUCAAUCAACUCUACUCCCAGGGAAAACCCUGGUAUUUUCAACAGCUCGCAGUCAAG | 0.141 |
| GGUCACGUCUCAAUCAACUCAAAAGAGGGGGGGAAAACCCCUUUACCCUCAAAUUCAACAGCUCGCAGUCAAG | -0.000329 |
| GGUCACGUCUCAAUCAACUCUAUCUCCAGGGAAAUCCCUGGCAUAUUCAACAGCUCGCAGUCAAG | 0.146 |
| GGUCACGUCUCAAUCAACUCUAUUUCCAGGGAAACCCCUGGCUAACUCAACAGCUCGCAGUCAAG | 0.134 |
| GGUCACGUCUCAAUCAACUCAUUCUCCAGGGAAAGCCCUGGCUUAUUCAACAGCUCGCAGUCAAG | -0.0587 |
| GGUCACGUCUCAAUCAACUCAACGCCAGGAGUUUACUCCUGUUUUCUCAACAGCUCGCAGUCAAG | -0.281 |
| GGUCACGUCUCAAUCAACUCUAUUCCAGGAGUUUUCUCCUGCUUAUUCAACAGCUCGCAGUCAAG | -0.117 |
| GGUCACGUCUCAAUCAACUCUUUCCCCAGGGAAACCCCUGGCAUAUUCAACAGCUCGCAGUCAAG | 0.107 |
| GGUCACGUCUCAAUCAACUCCCUAGAGGGGGGGAAAACCCCUUUACCCUCACAAUCAACAGCUCGCAGUCAAG | 0.389 |
| GGUCACGUCUCAAUCAACUCAACUCCCAGGGAAAGCCCUGGCAAUUUCAACAGCUCGCAGUCAAG | 0.122 |
| GGUCACGUCUCAAUCAACUCAUCCCCCAGGGAAACCCCUGGUAAAUUCAACAGCUCGCAGUCAAG | 0.108 |
| GGUCACGUCUCAAUCAACUCUAUAGAGGGGGGGAAAACCCCUUUACCCUCACUAUCAACAGCUCGCAGUCAAG | 0.116 |
| GGUCACGUCUCAAUCAACUCCUUAGAGGGGGGGAAAACCCCUUUACCCUCAACAUCAACAGCUCGCAGUCAAG | 0.186 |
| GGUCACGUCUCAAUCAACUCAUCUUCCAGGGAAAACCCUGGCUAAUUCAACAGCUCGCAGUCAAG | 0.36 |
| GGUCACGUCUCAAUCAACUCAAUUCCCAGGGAAACCCCUGGUAUUCUCAACAGCUCGCAGUCAAG | -0.158 |
| GGUCACGUCUCAAUCAACUCUACUUCAGGAGUUUCCUCCUGUUAACUCAACAGCUCGCAGUCAAG | 0.141 |
| GGUCACGUCUCAAUCAACUCACUAGAGGGGGGGAAAACCCCUUUACCCUCACUAUCAACAGCUCGCAGUCAAG | 0.225 |
| GGUCACGUCUCAAUCAACUCCAACGAGGGGGGGAAAACCCCUUUACCCUCUAAAUCAACAGCUCGCAGUCAAG | -0.488 |
| GGUCACGUCUCAAUCAACUCUCUAGAGGGGGGGAAAACCCCUUUACCCUCAAACUCAACAGCUCGCAGUCAAG | -0.0157 |
